{
  "sequences": {"note": "By UniProt entry, the sequences of proteins in these tests, tags left out. Where a name states a change or a piece, a line headed by the entry shows the natural chain unless it says otherwise. Residues count along the entry.", "UniProt Q02053, residues 950-1058": "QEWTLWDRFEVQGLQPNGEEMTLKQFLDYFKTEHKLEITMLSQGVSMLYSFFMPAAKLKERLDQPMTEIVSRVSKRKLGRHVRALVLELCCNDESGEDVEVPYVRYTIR", "UniProt P45974": "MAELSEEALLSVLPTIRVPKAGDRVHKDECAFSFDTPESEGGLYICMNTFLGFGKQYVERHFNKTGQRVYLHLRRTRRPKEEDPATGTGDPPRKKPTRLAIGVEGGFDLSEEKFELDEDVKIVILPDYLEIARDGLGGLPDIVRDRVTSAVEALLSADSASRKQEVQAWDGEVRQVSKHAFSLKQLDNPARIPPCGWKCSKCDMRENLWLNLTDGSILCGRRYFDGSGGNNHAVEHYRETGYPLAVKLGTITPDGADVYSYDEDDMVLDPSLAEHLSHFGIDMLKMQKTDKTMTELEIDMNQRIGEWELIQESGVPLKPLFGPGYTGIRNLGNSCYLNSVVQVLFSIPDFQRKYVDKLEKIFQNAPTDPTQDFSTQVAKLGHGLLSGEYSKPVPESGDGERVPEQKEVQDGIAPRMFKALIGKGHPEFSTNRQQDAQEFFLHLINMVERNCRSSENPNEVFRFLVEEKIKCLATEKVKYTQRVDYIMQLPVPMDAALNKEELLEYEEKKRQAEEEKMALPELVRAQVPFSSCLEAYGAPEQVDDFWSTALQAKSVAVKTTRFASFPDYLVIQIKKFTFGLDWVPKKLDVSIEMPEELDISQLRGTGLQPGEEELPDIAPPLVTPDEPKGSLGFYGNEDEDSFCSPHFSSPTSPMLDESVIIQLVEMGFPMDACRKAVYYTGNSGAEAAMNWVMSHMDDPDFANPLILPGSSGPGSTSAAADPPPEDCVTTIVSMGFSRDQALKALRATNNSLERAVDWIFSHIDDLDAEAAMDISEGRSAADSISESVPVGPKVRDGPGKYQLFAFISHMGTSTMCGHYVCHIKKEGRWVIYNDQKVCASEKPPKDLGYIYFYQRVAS", "UniProt P22314": "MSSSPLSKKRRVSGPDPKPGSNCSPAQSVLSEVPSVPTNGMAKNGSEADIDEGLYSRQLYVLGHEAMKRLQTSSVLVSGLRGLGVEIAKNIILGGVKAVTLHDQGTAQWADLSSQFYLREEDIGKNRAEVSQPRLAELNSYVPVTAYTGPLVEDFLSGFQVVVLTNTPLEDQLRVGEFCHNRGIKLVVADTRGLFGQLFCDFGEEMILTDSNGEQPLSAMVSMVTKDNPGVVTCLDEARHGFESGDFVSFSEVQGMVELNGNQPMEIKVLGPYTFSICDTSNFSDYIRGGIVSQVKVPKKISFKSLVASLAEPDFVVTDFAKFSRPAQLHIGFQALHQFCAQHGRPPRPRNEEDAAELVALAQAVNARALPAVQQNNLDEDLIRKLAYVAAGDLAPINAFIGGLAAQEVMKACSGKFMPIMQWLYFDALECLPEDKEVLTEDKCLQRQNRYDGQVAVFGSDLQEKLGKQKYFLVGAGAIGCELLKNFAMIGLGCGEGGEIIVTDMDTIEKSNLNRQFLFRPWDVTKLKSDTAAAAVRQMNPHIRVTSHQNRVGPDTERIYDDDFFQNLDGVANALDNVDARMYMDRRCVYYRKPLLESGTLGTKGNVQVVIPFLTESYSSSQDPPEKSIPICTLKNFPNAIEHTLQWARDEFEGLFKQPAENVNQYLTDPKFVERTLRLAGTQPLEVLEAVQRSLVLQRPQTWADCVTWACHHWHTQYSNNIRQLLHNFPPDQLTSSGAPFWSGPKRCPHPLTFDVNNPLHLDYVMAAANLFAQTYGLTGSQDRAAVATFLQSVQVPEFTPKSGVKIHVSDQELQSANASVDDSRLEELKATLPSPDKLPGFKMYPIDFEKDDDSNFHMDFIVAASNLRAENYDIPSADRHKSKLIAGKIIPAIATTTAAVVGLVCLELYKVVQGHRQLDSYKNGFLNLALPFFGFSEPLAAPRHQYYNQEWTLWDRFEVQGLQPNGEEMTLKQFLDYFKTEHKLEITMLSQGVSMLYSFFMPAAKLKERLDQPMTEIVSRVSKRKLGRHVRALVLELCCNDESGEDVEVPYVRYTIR"},
  "source": "paper PMC4160250",
  "key": {"[1]": {"biological_target": "T1, UbP_N (N-terminal part of DC-UbP, residues 14-141) (human) (UniProt Q8WUN7)", "T1 sequence": "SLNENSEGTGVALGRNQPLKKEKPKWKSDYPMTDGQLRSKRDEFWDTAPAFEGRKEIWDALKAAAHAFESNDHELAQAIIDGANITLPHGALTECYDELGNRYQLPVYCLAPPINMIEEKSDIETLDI", "experiment": "NMR titration; 15N-labelled UbP_N or UbP_C titrated with GST-UFD at a molar ratio of 1:3; peak intensity changes; both purified"}, "[2]": {"biological_target": "T2, UbP_C (C-terminal part of DC-UbP, residues 129-234), His-tagged (human) (UniProt Q8WUN7)", "T2 sequence": "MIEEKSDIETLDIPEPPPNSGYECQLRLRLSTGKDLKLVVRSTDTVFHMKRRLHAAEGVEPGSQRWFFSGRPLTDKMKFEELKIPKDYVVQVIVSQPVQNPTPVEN", "experiment": "NMR titration; 15N-labelled UbP_C (200 uM; 150 uM for the affinity) titrated with USP5_UBA12 or USP5_ZnF; 1H-15N HSQC, 20 mM phosphate, 50 mM NaCl, pH 6.5, 298 K; both purified"}, "GST-fused DC-UbP (human)": {"biological_target": "T3, GST-fused DC-UbP (human) (UniProt Q8WUN7)", "T3 sequence": "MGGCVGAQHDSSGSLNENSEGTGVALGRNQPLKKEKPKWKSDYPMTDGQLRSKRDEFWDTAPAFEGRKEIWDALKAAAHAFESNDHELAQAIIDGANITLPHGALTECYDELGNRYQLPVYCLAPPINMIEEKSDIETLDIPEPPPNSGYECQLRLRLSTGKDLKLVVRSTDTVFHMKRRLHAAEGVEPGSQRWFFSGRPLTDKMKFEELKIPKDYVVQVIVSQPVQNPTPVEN", "experiment": "pull-down; the same GST-DC-UbP pull-down from HEK 293T lysate, read by immunoblotting with antibodies against UbE1, USP5 or Ub (also after re-suspension in 8 M urea); only the target purified"}, "[3]": {"biological_target": "T4, FLAG-tagged DC-UbP (human) (UniProt Q8WUN7)", "T4 sequence": "T3 sequence", "experiment": "co-IP; FLAG-DC-UbP, FLAG-UbP_N or FLAG-UbP_C co-transfected with Myc-USP5 into HEK 293T; IP with mouse anti-FLAG M2-agarose; endogenous UbE1 detected with anti-UbE1"}, "[4]": {"biological_target": "T5, FLAG-tagged UbP_C (residues 129-234 of DC-UbP) (human) (UniProt Q8WUN7)", "T5 sequence": "T2 sequence", "experiment": "co-IP; FLAG-DC-UbP, FLAG-UbP_N or FLAG-UbP_C co-transfected with Myc-USP5 into HEK 293T; IP with mouse anti-FLAG M2-agarose; endogenous UbE1 detected with anti-UbE1"}, "[5]": {"biological_target": "T6, FLAG-tagged UbP_N (residues 14-141 of DC-UbP) (human) (UniProt Q8WUN7)", "T6 sequence": "T1 sequence", "experiment": "co-IP; FLAG-DC-UbP, FLAG-UbP_N or FLAG-UbP_C co-transfected with Myc-USP5 into HEK 293T; IP with mouse anti-FLAG M2-agarose; endogenous UbE1 detected with anti-UbE1"}},
  "note": "Results are given in words; binding and its absence hold for the method and conditions named. For some of these results: In cells and extracts the contact can be indirect. Some results given as binding are weak or reduced against the parent protein; the word gives no strength. For some of these results: Sequences can lack the tags named with a protein.",
  "data": [
    {"substance": "GST-fused UFD domain of UbE1 (residues 950-1058) (from UniProt Q02053 950-1058) (domain or fragment)", "values": [
      {"measurement": "binding", "setting": "[1]", "value": "no binding"}
    ]},
    {"substance": "USP5_ZnF (zinc-finger domain of USP5, residues 169-289) (from UniProt P45974 169-289) (domain or fragment)", "values": [
      {"measurement": "binding", "setting": "[2]", "value": "no binding"}
    ]},
    {"substance": "endogenous USP5 (ubiquitin-specific protease 5) of HEK 293T cells (from UniProt P45974 1-858) (enzyme)", "values": [
      {"measurement": "binding", "setting": "GST-fused DC-UbP (human)", "value": "binds"}
    ]},
    {"substance": "endogenous UbE1 (ubiquitin-activating enzyme E1) of HEK 293T cells (from UniProt P22314 1-1058)", "values": [
      {"measurement": "binding", "setting": "[3]", "value": "binds"},
      {"measurement": "binding", "setting": "[4]", "value": "binds"},
      {"measurement": "binding", "setting": "[5]", "value": "no binding"},
      {"measurement": "binding", "setting": "GST-fused DC-UbP (human)", "value": "binds"}
    ]}
  ]
}
